# Test results published in PMC5062570 (Nature Communications, 2016).
# “And” between values parts separate entries of the source, which are not always exact repeats. Identical values can stand only once. Like-named read-outs stand apart in the source and are kept apart here.
# How the values were obtained:
# [1] = biological target: PF-7802-labelled proteins in ARPE-19 cells (Homo sapiens, UniProt P31040); conditions: SDHA Succinate dehydrogenase [ubiquinone] flavoprotein subunit, mitochondrial (P31040)
# [2] = biological target: PF-7802-labelled proteins in ARPE-19 cells (Homo sapiens, UniProt P35232); conditions: protein PHB Prohibitin (P35232); replicates in separate columns
# UniProt P35232, sequence (P35232 whole entry): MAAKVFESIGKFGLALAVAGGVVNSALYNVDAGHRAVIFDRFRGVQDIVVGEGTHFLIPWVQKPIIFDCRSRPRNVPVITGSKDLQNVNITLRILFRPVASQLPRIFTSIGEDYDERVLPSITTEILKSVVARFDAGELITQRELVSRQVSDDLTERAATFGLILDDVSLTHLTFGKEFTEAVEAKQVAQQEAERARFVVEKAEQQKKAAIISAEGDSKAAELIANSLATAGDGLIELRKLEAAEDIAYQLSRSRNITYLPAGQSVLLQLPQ
# [3] = biological target: PF-7802-labelled proteins in ARPE-19 cells (Homo sapiens, UniProt P19367); conditions: protein HK1 Hexokinase-1 (P19367); one column per replicate
# [4] = biological target: PF-7802-labelled proteins in ARPE-19 cells (Homo sapiens, UniProt P62750)
# [5] = biological target: PF-7802-labelled proteins in ARPE-19 cells (Homo sapiens, UniProt P0DPH8); conditions: TUBA3D Tubulin alpha-3C/D chain (Q13748)
# [6] = biological target: T1, PF-7802-labelled proteins in ARPE-19 cells (Homo sapiens, UniProt P61981); conditions: for Median SILAC Ratio (Heavy/Light): protein YWHAG 14-3-3 protein gamma (P61981)
# T1 sequence (P61981 1-247): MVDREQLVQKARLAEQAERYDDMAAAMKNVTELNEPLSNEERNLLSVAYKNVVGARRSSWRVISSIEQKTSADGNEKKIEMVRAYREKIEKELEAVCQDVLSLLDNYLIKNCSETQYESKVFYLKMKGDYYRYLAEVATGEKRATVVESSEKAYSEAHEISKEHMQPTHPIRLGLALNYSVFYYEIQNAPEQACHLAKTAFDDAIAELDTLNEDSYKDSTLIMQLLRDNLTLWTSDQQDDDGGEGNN
# [7] = biological target: PF-7802-labelled proteins in ARPE-19 cells (Homo sapiens, UniProt Q9P035); conditions: protein PTPLAD1 3-hydroxyacyl-CoA dehydratase 3, Q9P035
# [8] = biological target: PF-7802-labelled proteins in ARPE-19 cells (Homo sapiens, UniProt Q15438); conditions: protein CYTH1 Cytohesin-1 (Q15438)
# UniProt Q15438, sequence (Q15438 whole entry): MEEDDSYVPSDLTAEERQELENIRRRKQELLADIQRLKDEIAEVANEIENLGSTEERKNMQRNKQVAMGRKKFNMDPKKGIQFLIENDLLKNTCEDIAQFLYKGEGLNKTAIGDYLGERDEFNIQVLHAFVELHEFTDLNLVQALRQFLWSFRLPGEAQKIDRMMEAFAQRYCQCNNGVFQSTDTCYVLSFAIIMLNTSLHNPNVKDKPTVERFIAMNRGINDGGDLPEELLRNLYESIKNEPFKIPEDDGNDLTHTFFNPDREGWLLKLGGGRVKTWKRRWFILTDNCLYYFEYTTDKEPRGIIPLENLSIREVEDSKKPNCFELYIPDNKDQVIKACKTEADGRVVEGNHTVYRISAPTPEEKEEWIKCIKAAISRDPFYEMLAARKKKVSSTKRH
# [9] = biological target: PF-7802-labelled proteins in ARPE-19 cells (Homo sapiens, UniProt Q14103); conditions: protein HNRNPD Heterogeneous nuclear ribonucleoprotein D0 (Q14103); one column per replicate
# UniProt Q14103, sequence (Q14103 whole entry): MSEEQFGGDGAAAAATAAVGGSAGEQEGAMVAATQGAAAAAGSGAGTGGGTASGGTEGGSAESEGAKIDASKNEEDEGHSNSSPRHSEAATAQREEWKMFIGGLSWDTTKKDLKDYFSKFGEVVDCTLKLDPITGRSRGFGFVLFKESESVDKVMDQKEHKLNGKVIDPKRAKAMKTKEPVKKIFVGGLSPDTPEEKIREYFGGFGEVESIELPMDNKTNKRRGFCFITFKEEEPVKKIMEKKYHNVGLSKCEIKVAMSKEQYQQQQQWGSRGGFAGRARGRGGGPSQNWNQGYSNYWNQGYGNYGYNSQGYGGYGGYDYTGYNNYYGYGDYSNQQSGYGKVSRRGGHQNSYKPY
# [10] = biological target: PF-7802-labelled proteins in ARPE-19 cells (Homo sapiens, UniProt P08559); conditions: protein PDHA1 Pyruvate dehydrogenase E1 component subunit alpha, somatic form, mitochondrial (P08559); replicates in separate columns
# [11] = biological target: PF-7802-labelled proteins in ARPE-19 cells (Homo sapiens, UniProt P61978); conditions: for Median SILAC Ratio (Heavy/Light): protein HNRNPK Heterogeneous nuclear ribonucleoprotein K (P61978), one column per replicate
# [12] = biological target: PF-7802-labelled proteins in ARPE-19 cells (Homo sapiens, UniProt P30050); conditions: protein RPL12 60S ribosomal protein L12, P30050
# [13] = biological target: T2, PF-7802-labelled proteins in ARPE-19 cells (Homo sapiens, UniProt P60660); conditions: for Median SILAC Ratio (Heavy/Light): protein MYL6 Myosin light polypeptide 6 (P60660), replicates in separate columns
# T2 sequence (P60660 1-151): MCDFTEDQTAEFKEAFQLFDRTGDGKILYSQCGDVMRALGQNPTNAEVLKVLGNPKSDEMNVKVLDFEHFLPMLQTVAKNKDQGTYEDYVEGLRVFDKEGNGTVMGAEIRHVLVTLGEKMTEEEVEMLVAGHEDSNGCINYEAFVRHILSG
# [14] = biological target: PF-7802-labelled proteins in ARPE-19 cells (Homo sapiens, UniProt P17066); conditions: for Median SILAC Ratio (Heavy/Light): protein HSPA6 Heat shock 70 kDa protein 6 (P17066), one column per replicate
# UniProt P17066, sequence (P17066 whole entry): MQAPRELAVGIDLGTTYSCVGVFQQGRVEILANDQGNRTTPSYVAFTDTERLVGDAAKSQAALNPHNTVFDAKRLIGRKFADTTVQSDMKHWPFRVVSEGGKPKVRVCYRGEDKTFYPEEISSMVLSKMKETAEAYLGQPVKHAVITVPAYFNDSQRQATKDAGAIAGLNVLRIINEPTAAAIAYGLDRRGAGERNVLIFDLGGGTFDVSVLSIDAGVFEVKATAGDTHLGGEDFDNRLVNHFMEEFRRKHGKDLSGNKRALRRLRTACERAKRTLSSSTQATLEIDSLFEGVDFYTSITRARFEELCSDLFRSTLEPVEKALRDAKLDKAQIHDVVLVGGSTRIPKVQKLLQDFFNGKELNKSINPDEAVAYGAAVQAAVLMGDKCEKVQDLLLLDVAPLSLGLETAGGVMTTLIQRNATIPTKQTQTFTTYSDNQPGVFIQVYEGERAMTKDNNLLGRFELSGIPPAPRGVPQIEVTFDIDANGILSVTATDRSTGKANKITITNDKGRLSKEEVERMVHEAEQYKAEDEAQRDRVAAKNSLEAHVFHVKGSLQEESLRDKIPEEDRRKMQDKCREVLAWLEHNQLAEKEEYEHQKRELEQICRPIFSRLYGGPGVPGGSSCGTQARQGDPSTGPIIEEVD
# [15] = biological target: PF-7802-labelled proteins in ARPE-19 cells (Homo sapiens, UniProt Q00839); conditions: for Median SILAC Ratio (Heavy/Light): protein HNRNPU Heterogeneous nuclear ribonucleoprotein U (Q00839), one column per replicate
# UniProt Q00839, sequence (Q00839 whole entry): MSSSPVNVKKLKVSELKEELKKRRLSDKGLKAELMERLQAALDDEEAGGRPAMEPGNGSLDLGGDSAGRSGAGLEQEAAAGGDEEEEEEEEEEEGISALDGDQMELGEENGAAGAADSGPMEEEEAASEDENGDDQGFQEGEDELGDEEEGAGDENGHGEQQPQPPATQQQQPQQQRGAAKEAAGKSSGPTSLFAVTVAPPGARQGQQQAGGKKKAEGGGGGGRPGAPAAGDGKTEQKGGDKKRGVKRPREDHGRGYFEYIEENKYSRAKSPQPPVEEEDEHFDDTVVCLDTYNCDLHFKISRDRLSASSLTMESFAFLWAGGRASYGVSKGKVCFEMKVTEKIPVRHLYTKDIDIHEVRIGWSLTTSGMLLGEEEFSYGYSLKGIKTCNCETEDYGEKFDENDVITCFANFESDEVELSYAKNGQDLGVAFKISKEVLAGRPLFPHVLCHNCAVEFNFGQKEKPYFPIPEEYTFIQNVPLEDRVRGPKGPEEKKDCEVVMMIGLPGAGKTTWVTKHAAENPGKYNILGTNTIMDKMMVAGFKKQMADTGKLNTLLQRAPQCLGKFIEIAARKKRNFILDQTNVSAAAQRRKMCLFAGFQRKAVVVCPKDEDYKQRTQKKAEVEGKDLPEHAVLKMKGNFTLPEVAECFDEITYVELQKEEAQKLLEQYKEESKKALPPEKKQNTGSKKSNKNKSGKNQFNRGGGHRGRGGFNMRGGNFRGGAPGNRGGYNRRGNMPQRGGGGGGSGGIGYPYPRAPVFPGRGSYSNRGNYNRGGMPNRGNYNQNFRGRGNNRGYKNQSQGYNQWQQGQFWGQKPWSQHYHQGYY
# [16] = biological target: PF-7802-labelled proteins in ARPE-19 cells (Homo sapiens, UniProt P84103); conditions: SRSF3 Serine/arginine-rich splicing factor 3 (P84103)
# UniProt P84103, sequence (P84103 whole entry): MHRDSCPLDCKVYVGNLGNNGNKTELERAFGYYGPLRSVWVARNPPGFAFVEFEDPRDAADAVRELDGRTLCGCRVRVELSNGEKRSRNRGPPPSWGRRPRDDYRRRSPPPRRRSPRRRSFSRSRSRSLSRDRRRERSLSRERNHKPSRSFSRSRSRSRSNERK
# [17] = biological target: PF-7802-labelled proteins in ARPE-19 cells (Homo sapiens, UniProt Q14974); conditions: protein KPNB1 Importin subunit beta-1 (Q14974); one column per replicate
# UniProt Q14974, sequence (Q14974 whole entry): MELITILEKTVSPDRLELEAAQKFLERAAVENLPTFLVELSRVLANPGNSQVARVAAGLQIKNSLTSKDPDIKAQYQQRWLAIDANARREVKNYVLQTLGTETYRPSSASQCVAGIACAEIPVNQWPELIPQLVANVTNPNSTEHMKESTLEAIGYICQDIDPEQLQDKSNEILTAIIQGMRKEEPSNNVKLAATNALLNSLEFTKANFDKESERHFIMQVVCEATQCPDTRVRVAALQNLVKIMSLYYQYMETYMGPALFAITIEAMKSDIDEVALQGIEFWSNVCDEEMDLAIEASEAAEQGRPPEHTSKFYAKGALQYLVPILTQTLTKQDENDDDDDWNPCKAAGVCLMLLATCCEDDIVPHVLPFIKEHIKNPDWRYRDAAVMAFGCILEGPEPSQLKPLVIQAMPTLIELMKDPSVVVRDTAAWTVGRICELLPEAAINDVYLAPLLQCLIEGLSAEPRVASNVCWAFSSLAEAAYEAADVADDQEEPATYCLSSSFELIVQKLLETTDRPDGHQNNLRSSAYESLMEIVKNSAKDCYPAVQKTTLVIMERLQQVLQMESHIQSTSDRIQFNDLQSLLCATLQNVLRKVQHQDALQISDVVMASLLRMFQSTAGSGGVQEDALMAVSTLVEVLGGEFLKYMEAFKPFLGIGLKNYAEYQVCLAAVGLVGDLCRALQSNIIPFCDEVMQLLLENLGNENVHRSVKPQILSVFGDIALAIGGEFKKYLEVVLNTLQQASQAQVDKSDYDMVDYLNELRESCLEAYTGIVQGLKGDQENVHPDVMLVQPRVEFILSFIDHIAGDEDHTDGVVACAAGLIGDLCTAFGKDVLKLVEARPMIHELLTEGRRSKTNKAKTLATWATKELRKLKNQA
# [18] = biological target: PF-7802-labelled proteins in ARPE-19 cells (Homo sapiens, UniProt P42704); conditions: for Median SILAC Ratio (Heavy/Light): protein LRPPRC Leucine-rich PPR motif-containing protein, mitochondrial (P42704), replicates in separate columns
# [19] = biological target: PF-7802-labelled proteins in ARPE-19 cells (Homo sapiens, UniProt Q15393); conditions: SF3B3 Splicing factor 3B subunit 3 (Q15393)
# UniProt Q15393, sequence (Q15393 whole entry): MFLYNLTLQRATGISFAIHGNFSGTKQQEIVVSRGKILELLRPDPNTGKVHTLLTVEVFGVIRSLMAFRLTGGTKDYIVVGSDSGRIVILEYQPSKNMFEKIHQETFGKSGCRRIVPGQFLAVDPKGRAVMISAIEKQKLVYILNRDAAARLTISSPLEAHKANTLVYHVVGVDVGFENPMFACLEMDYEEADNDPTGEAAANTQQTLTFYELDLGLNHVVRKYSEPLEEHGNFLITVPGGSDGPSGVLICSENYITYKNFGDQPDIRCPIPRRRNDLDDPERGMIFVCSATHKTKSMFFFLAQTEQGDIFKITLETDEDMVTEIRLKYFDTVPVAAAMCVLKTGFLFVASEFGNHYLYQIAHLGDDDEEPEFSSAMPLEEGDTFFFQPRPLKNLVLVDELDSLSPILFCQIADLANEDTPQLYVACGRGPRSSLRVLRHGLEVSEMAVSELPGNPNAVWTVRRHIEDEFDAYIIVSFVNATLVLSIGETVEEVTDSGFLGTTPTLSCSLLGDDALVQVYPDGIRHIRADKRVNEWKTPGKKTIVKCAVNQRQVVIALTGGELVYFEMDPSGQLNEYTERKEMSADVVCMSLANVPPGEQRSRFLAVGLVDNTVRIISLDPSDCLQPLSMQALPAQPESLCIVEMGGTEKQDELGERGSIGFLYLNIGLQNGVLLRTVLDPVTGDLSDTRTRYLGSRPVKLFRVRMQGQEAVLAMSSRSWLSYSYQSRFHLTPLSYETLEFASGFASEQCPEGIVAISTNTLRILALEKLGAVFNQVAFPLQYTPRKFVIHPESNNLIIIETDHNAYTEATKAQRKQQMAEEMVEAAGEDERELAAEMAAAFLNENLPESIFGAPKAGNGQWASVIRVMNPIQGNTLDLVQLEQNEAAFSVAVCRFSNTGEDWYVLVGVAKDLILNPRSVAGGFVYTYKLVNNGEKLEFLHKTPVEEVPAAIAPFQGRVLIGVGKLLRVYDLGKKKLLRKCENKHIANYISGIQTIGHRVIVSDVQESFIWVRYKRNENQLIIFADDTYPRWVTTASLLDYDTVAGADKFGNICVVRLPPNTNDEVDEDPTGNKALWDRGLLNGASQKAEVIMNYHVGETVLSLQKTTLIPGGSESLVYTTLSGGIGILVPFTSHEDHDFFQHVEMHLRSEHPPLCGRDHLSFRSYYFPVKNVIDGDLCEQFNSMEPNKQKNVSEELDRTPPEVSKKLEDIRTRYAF
SMILES,Median SILAC Ratio (Heavy/Light) [1],Median SILAC Ratio (Heavy/Light) [2],Median SILAC Ratio (Heavy/Light) [3],Median SILAC Ratio (Heavy/Light) [5],Median SILAC Ratio (Heavy/Light) ([6]; replicate R1),Median SILAC Ratio (Heavy/Light) [7],Median SILAC Ratio (Heavy/Light) [8],Median SILAC Ratio (Heavy/Light) [9],Median SILAC Ratio (Heavy/Light) [10],Median SILAC Ratio (Heavy/Light) [11],Median SILAC Ratio (Heavy/Light) [12],Median SILAC Ratio (Heavy/Light) [13],Median SILAC Ratio (Heavy/Light) [14],Median SILAC Ratio (Heavy/Light) [15],Median SILAC Ratio (Heavy/Light) [16],Median SILAC Ratio (Heavy/Light) [17],Median SILAC Ratio (Heavy/Light) [18],Median SILAC Ratio (Heavy/Light) [19],further results
"CNC1CCN(C(=O)C[C@@H](Cc2ccccc2)C(=O)N[C@@H](CSC)C(=O)N[C@@H](CC2CCCCC2)[C@@H](O)C(=O)OC(C)C)CC1 [CP-108671, reference compound]",1.212,1.214,1.139,0.9633,2.51,0.9337,1.948,0.7897,0.9666,1.184,1.115,1.998,1.431,1.133 and 0.747,1.055,1.304,1.023,0.4208,"Median SILAC Ratio (Heavy/Light) ([4]; protein RPL23A 60S ribosomal protein L23a, P62750): 1.246; SILAC ratio (DMSO/CP-108671) ([6]; P61981 YWHAG 14-3-3 protein gamma): 0.41; SILAC ratio (DMSO/CP-108671) ([11]; P61978 HNRNPK Heterogeneous nuclear ribonucleoprotein K): 0.85; SILAC ratio (DMSO/CP-108671) ([13]; P60660 MYL6 Myosin light polypeptide 6): 0.50; SILAC ratio (DMSO/CP-108671) ([14]; P17066 HSPA6 Heat shock 70 kDa protein 6): 0.70; SILAC ratio (DMSO/CP-108671) ([15]; Q00839 HNRNPU Heterogeneous nuclear ribonucleoprotein U): 0.94; SILAC ratio (DMSO/CP-108671) ([18]; P42704 LRPPRC Leucine-rich PPR motif-containing protein, mitochondrial): 0.98"
Cc1cc([C@H]2C[C@H]3[C@@H](C)SC(N)=N[C@@]3(c3ccc(F)cc3F)CO2)on1 [PF-9283],1.262,1.332 and 2.325,1.415,1.131,3.224,1.107,1.612,0.985 and 0.3331,1.115,1.409 and 0.9828 and 2.235,1.292 and 1.34,1.895 and 1.122,1.448,1.286 and 0.7433 and 2.188,1.191 and 0.7904,1.475 and 1.261,1.39,1.171,Median SILAC Ratio (Heavy/Light) [4]: 1.1611; Median SILAC Ratio (Heavy/Light) ([6]; replicate R4): 1.6178
